Results published in paper PMC6451091.
This is one part of the list. The protein was read in a cell extract, so binding may be indirect.

Each sequence was assayed on PU.1 (endogenous, THP-1 nuclear extract) + IRF8 (endogenous, THP-1 nuclear extract) (assay: nuclear extract protein-binding microarray (nextPBM)). Details: 20 mM HEPES pH 7.9, 100 mM NaCl, 1 mM DTT, 0.2 mg/mL BSA, 0.02% Triton X-100, 2% milk, 0.4 mg/mL salmon testes DNA; 1 h; temperature not stated; high values mean tight binding; double strand, one strand shown; sequences stand for … in GCCTAGCAC…GTGCTAGGTCTTGATTCGCTTGACGCTGCTG.

| Sequence | binding signal |
| --- | --- |
| TAAAGGAGCAACTGAAACCA | 7.24 z-score |
| AAAAAAGGGAAATGAAACTA | 53.9 z-score |
| AGAAAGAGGAAGGGAAACTA | 13.1 z-score |
| TGAGAGGAGAAGTGAAACAT | 3.98 z-score |
| AAATTGAGGAAATGAAACTA | 58.9 z-score |
| CCCAACAGGAAGTGAAACAG | 9.81 z-score |
| TGAGAGGAGGAGTGAAACCT | 8.74 z-score |
| TAATAGAGGAAGTGAAACTA | 84.9 z-score |
| TGAAACAGAAAGTGAAACCA | 79.5 z-score |
| GATAAGCGGAACTGAAAGCT | 6.62 z-score |
| GATAAGAGGAAGTGAAAGCT | 20.7 z-score |
| GATAAGAGGAACTGAAAGTT | 9.64 z-score |
| TAGTAGAGGAAGTGAAAGCA | 17.1 z-score |
| GATAAGAGGAACTGAAAGCG | 6.98 z-score |
| TGAAACGGGAAGTGAAACCA | 65.5 z-score |
| AAAAAGAGGAAGAGAAACTA | 34.2 z-score |
| GAAATGAGGAACAGAAACTG | 31.2 z-score |
| TTGGTCAGGAAGTGAAACTG | 44.6 z-score |
| CTGCCAGGGAAGTAAAAGCA | -2.47 z-score |
| AACAAAAGGAAATGAAAGTA | 9.42 z-score |

| Sequence | binding signal |
| --- | --- |
| TTTTTGAGGAACTGAAACTT | 44.4 z-score |
| CTGACAGGGAACTGAAACTC | 12.6 z-score |
| TAATGGAGGAACTGAAACCA | 24 z-score |
| AAAAAGAGGAACAGAAACTG | 42 z-score |
| AAAAAGAGGAAGGGAAACTG | 11.5 z-score |
| ATTAAGGGGAAGTGAAACAT | 11.4 z-score |
| AAAATAAGGAAATGAAAGTA | 19 z-score |
| CTGCCAGGGAAGTGAAAGCT | 3.36 z-score |
| TAAAGGAGGTACTGAAACCA | 7.38 z-score |
| CTGGCAGGGAACTGAAACTC | 11.7 z-score |
| TGGCAGAGGACGTGAAACTA | 8.24 z-score |
| TGAGAGAAGAAGTGAAACCT | 23.7 z-score |
| TGAGAGGAGAAGTGAAAACT | 0.698 z-score |
| AGAAAGGGGAACAGAAACTG | 29.6 z-score |
| AAAAGTAGGAAGTGAAACTA | 67.8 z-score |
| GATAATAGGAACTGAAAGCT | 2.59 z-score |
| ACTCATAGGAACTGAAAGTA | 8.14 z-score |
| TAAAAGGAGAAGTGAAACTG | 64.5 z-score |
| TAAAGGAGGGACTGAAACCA | 7.54 z-score |
| CTGGCAGGGAACTCAAACTC | -0.316 z-score |
